For the experiment, the target named is T1, Human DJ-1, wild type (human, UniProt Q99497 1-189, N-terminal Ser instead of Met).
T1 sequence: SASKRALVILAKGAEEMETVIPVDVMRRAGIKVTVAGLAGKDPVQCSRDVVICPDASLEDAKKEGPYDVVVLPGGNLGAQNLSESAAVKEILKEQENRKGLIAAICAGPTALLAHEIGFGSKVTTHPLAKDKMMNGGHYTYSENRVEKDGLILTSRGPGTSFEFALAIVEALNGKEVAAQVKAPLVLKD
The experiment can be described thus: NMR titration.

B1: Tau deletion mutant A2_P251del L376_L441del (Δ4R construct) (domain or fragment)
chain: not shown
modifications: 15N-labelled
As for B1, the binding result is “binds”.

The values above are taken from publication PMC9997487 (Biochemistry, 2023).
